# Reference: PubChem BioAssay AID1347073 (National Center for Advancing Translational Sciences (NCATS), 2019)
# Screen size: about 45,000 compounds; about 200 (0.44%) were called active. Another 7% or so got no clear call; they are omitted. The call rests on the fitted dose curve; in most records, active means well fitted activation curve with a large enough effect; inconclusive means small, poorly fitted or top-dose-only effect; inactive means no such curve, though single readings can be large or run the other way. Some of the results follow.
# Assay: qHTS of TDP-43 Inhibitors: NCGC Sytravon Library Screen; further: 0% is about no effect; nearly all actives have a fitted effect of over 55% in size
# Conditions: yeast TDP-43 toxicity rescue, BacTiter-Glo growth, 24 h; series mostly up to 46.1 µM; growth rescue (activation): at the top concentration
# How it was run: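 TDP-43-expressing yeast, pregrown in raffinose, seeded at OD600 0.02 in galactose medium with compound for 24 hr at 30 deg C. Growth read by BacTiter-Glo luminescence, so rescue of toxicity appears as activation.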
row,SMILES,growth rescue (activation)
1,Cc1ccccc1N(CC(=O)Nc1ccccc1C(=O)NCc1ccco1)S(=O)(=O)c1ccccc1,inactive: -16.4%
2,Cc1cc2c(cc1C)/C(=N/NC(=O)c1ccccn1)CCC2,inactive: 11.9%
3,NC(=O)C1CCN(c2ccc([N+](=O)[O-])cc2Cl)CC1,inactive: 21%
4,COc1ccc(NC(=O)CC2CCCC2)cc1S(=O)(=O)N1CCCCC1,inactive: 21%
5,CC(Sc1nnc(CC(=O)Nc2ccccc2F)n1C)C(=O)Nc1nccs1 (stereo not given),inactive: 9.38%
6,COc1cc(C)nc(N2CCCC(C(=O)Nc3cc(Cl)ccc3OC)C2)n1 (stereo not given),inactive: -7.87%
7,Cn1c(CCNC(=O)c2ccco2)nc2ccccc21,inactive: 10.8%
8,O=C(O)C1=NN(c2ccccc2)C(=O)CC1,inactive: 5.74%
9,N#C/C(=C\c1cccc([N+](=O)[O-])c1)c1nnc2n1CCCCC2,inactive: 3.79%
10,CCCCNC(=O)C1(C)CCN1C(=O)c1ccncc1 (stereo not given),inactive: 1.1%
11,COCCNC(=O)C1CCCN(C(=O)Cc2ccc(F)cc2)CC1 (stereo not given),inactive: 3.18%
12,COc1cc(C(=O)NC(=S)NNC(=O)[C@H]2C[C@@H]2c2ccccc2)cc(OC)c1OC,inactive: 8.04%
13,COc1ccc(-c2cc(C(=O)N(C)Cc3nc4ccccc4c(=O)[nH]3)c3ccccc3n2)cc1OC,inactive: 5.93%
14,COc1cc(OC)cc(C(=O)NC(=S)Nc2ccc(N3CCCC3)cc2)c1,inactive: -0.492%
15,COc1ccc(C2Nc3ccccc3C(=O)N2c2ccccc2)cc1Cn1cc([N+](=O)[O-])cn1 (stereo not given),inactive: 16.9%
16,CC1CCCC(C)N1C(=O)COC(=O)c1cc(=O)[nH]c2ccccc12 (stereo not given),inactive: 4.65%
17,O=C1Nc2ccccc2C1=Nc1ccc(-c2nnc3n2CCCCC3)cc1,inactive: 0.967%
18,NC1=NC(=O)/C(=C\c2ccc(O)c([N+](=O)[O-])c2)S1,inactive: -7.81%
19,Cc1cccc(N(C(=O)CNC(=O)c2ccco2)C(C(=O)NC2CCCC2)c2cccnc2)c1C (stereo not given),inactive: 8.72%
20,CC(=NC(C)C)C1=C(O)CCC1=O,inactive: -9.54%
21,Cc1cc(C(=O)N/N=C/c2ccc(C)s2)n[nH]1,inactive: 5.75%
22,CC1(C(=O)NS(=O)(=O)c2ccc(Cl)cc2)CCN1C(=O)Cc1cccc2ccccc12 (stereo not given),inactive: -5.46%
23,CCOc1cc(NC(=S)NCCCOC)c(OCC)cc1NC(=O)c1ccco1,inactive: 21.3%
24,O=C(C[n+]1ccc(Cc2ccccc2)cc1)Nc1ccc([N+](=O)[O-])cc1Cl,inactive: 4.4%
25,Cc1cccc(C(CC(=O)NCc2ccco2)c2ccccc2)c1O (stereo not given),inactive: -2.06%
26,C/C(=N\NC(=O)COc1ccc(C(C)(C)C)cc1)c1cc2ccccc2o1,inactive: 9.42%
27,Cc1ccc(C(=O)C[n+]2ccc3ccccc3c2)cc1,inactive: -0.473%

row,SMILES,growth rescue (activation)
1,O=C(CC(=O)NCc1ccccc1)NCc1ccccc1,inactive: -9.71%
2,CCN1C(=O)/C(=C/c2cn(-c3ccccc3)nc2-c2cccnc2)SC1=S,inactive: -0.876%
3,COCc1nnc(NC(=O)c2ccc(Cl)cc2[N+](=O)[O-])s1,inactive: -10.2%
4,C=CCn1c(=O)c(C(=O)Nc2ncccc2O)c(O)c2ccccc21,inactive: 6.56%
5,CCCn1c(SC(C(=O)Nc2cccc(OC)c2)c2ccccc2)nc2ccccc2c1=O (stereo not given),inactive: 11.9%
6,O=C(NN1CCCCC1)c1ccc(COc2ccc(Cl)cc2)cc1,inactive: 4.23%
7,Cc1ccccc1S(=O)(=O)NC(=NCc1ccc(F)cc1)c1ccccc1,inactive: 16.5%
8,CC(C)NC(=O)Nc1nnc([C@H]2C[C@H](O)[C@@H](CO)O2)s1,inactive: 5.93%
9,O=C(C1=NN[C@@H]2C(=O)N(c3ccccc3C(F)(F)F)C(=O)[C@H]12)c1ccc2ccccc2n1,inactive: 10.7%
10,CCC(C(=O)OCC(=O)Nc1cccc(C(C)=O)c1)c1ccccc1 (stereo not given),inactive: 21.6%
11,CC(C)N(C(=O)CN1C(=O)NC(c2ccccc2)(c2ccccc2)C1=O)C(C)C,inactive: 3.13%
12,COc1cc(/C=C/C(=O)OCC(=O)Nc2ccc(NC(C)=O)cc2)cc(S(=O)(=O)N2CCc3ccccc32)c1OC,inactive: 6.25%
13,COc1cc(/C=N/NC(=O)c2ccncc2)ccc1Oc1ccc([N+](=O)[O-])cn1,inactive: 8.44%
14,O=[N+]([O-])c1ccc(/C=N/Nc2ccnc3cc(Cl)ccc23)o1,inactive: 11.4%
15,O=C(CCC(=O)NNc1nc2ccccc2c2nc(-c3ccccc3)nn12)NCCCN1CCCC1=O,inactive: 2.23%
16,COCCNC(=S)N(Cc1cc2cc(C)ccc2n2nnnc12)C1CCCC1,inactive: 4.35%
17,Cc1nn(CC(=O)NNC(=O)c2ccccc2F)c([N+](=O)[O-])c1Br,inactive: 9.82%
18,O=C(Cc1nnc(NC(=O)c2cccc([N+](=O)[O-])c2)s1)NCc1ccccc1,inactive: 2.42%
19,O=C(Nc1ccccc1C(=O)NC(Cc1c[nH]c2ccccc12)C(=O)O)c1ccccc1 (stereo not given),inactive: -18.7%
20,COc1ccccc1N(C)S(=O)(=O)c1ccc(C(=O)OCC(=O)N(C(C)C)C(C)C)cc1,inactive: -8.97%
21,O=C(NC1CCCC1)C1CCN(C(=O)c2cccc(Cl)c2)CC1,inactive: 13%
22,COc1ccc2nc(SCC(N)=O)cc(C)c2c1,inactive: 40.5%
23,CC1CN(C(C)C(=O)NC(c2ccccc2)c2ccccc2)CC(C)O1 (stereo not given),inactive: -2.9%
24,C(=N\n1cnnc1SCc1ccccc1)/c1ccco1,inactive: 11.8%
25,Cn1c(=O)[nH]c(=O)c2c1nc(SCCC(=O)O)n2Cc1cccc(Br)c1,inactive: -2.21%
26,Cc1ccccc1Nc1nc(N)nc(CSCC(=O)Nc2cccc(Br)c2)n1,inactive: 1.05%
27,CCCCCn1c(=N)c(S(=O)(=O)c2ccc(Cl)cc2)cc2c(=O)n3cccc(C)c3nc21,inactive: 1.59%

row,SMILES,growth rescue (activation)
1,CN(C)CCCNc1nc(N)c([N+](=O)[O-])c(NCCO)n1,inactive: -6.75%
2,C=CCOc1ccc(Br)cc1CNCCCN1CCOCC1,inactive: 0.24%
3,CCOC(=O)c1c(-c2ccccc2)csc1NC(=O)/C(C#N)=C/c1ccc(O)c(OC)c1,inactive: 18.8%
4,CCc1nc(SCC(=O)Nc2nnc(CC(C)C)s2)n[nH]1,inactive: 11.4%
5,CC(CN1CCN(Cc2ccccc2)CC1)OC(=O)c1ccco1 (stereo not given),inactive: -10.5%
6,O=C(c1cc(S(=O)(=O)N2CCOCC2)c(Cl)cc1Cl)N1CCCCC1CO (stereo not given),inactive: 27.9%
7,O=C(NC1CCCCC1)c1cc(-c2cccc(Cl)c2)on1,inactive: 15.9%
8,COc1ccc(S(=O)(=O)N2CCN(C(=S)NCCc3ccccc3)CC2)cc1,inactive: 15%
9,O=C(c1ccoc1)N1CCC2(CCCN(Cc3ccc(F)c(F)c3)C2)C1 (stereo not given),inactive: 13.1%
10,O=C(CSc1ncccn1)Nc1cccc(S(=O)(=O)N2CCOCC2)c1,inactive: 10.4%
11,CN(C)S(=O)(=O)c1ccc(NC(=O)c2ccncc2)cc1,inactive: -9%
12,O=C(CC1C(=O)NCCN1Cc1ccc(F)c(F)c1)NCCn1cccn1 (stereo not given),inactive: 8.4%
13,Cc1cc2ccccc2n2c(SCC(=O)Nc3ccc(S(=O)(=O)N4CCC(C)CC4)cc3)nnc12,inactive: 4.91%
14,CCOC(=O)C(CC)n1nc(C)n2c(cc3occc32)c1=O (stereo not given),inactive: -13%
15,Cc1ccc(O)c(C(=O)c2cnc3onc(-c4ccc(F)cc4)c3c2)c1,inactive: 4.55%
16,COc1ccc(C2(CNS(=O)(=O)c3ccc(C)cc3)CCOCC2)cc1,inactive: 2.75%
17,Cc1cc(C)n(-c2cc(N3CCN(S(=O)(=O)c4ccc(Cl)cc4)CC3)ccc2[N+](=O)[O-])n1,inactive: 14%
18,CC(NC(=O)CCCc1c[nH]c2ccccc12)c1ccc(F)cc1 (stereo not given),inactive: 13.8%
19,CC#CC[N+](C)(C)CCCCCCCCCC,inactive: 2.2%
20,CC(=O)N/C(=C\c1ccc2c(c1)OCO2)C(=O)NC(C(=O)O)c1ccccc1 (stereo not given),inactive: 2.06%
21,COc1ccc(NS(=O)(=O)c2cccc(C(=O)NN=Cc3cc(Br)c(O)c(Br)c3)c2)cc1,inactive: -0.982%
22,COc1cccc(NC(=O)Cn2cc(C(=O)C3CC3)c3ccccc32)c1,inactive: 17.8%
23,O=C(O)c1cnn2c(-c3ccc(F)cc3)ccnc12,inactive: 11.1%
24,O=C(CCCOc1ccc(Cl)cc1Cl)Nc1ccc(O)cc1C(=O)O,inactive: 7.61%
25,COc1ccccc1NC(=O)CSc1nnc(CNC(=O)c2ccco2)n1C,inactive: 2.35%
26,COc1ccccc1C(=O)NCCCNC(=O)c1cnccn1,inactive: -26.6%
27,CC(=O)NS(=O)(=O)c1ccc(NC(=O)c2ccccn2)cc1,inactive: 7.99%

row,SMILES,growth rescue (activation)
1,O=C(CNC(c1ccccc1)c1ccccc1)Nc1c(F)cccc1F,inactive: 13.2%
2,OC(c1ccc(F)c(F)c1)c1nc(-c2ccoc2)cs1 (stereo not given),inactive: 18.2%
3,Nc1cc(=O)[nH]c(SCC(=O)NC2CCCCCCC2)n1,inactive: -16.3%
4,Cc1noc(C)c1COc1ccc(CC(=O)NCCc2ccccn2)cc1,inactive: 6.99%
5,Cc1cc(NC(=O)CN2C(=O)[C@@H]3[C@H](C2=O)[C@@H]2C[C@H]3C(Br)C2Br)no1 (stereo not given in full),inactive: -26.5%
6,O=C(CNC(=O)C12CC3CC(CC(C3)C1)C2)N1CCN(S(=O)(=O)/C=C/c2ccccc2)CC1,inactive: 10.9%
7,O=C(O)CCCNC(=O)/C(=C\C=C\c1ccccc1)NC(=O)c1ccccc1Cl,inactive: 3.29%
8,CCCCOc1cccc(C2c3c(oc4ccccc4c3=O)C(=O)N2c2ccccn2)c1 (stereo not given),inactive: 5.4%
9,O=C1NCCN(Cc2c(F)cccc2Cl)C1CC(=O)N1CCCO1 (stereo not given),inactive: 13%
10,CCc1ccc(OCC(=O)N(CC)CC)cc1,inactive: 5.54%
11,Cc1cccc2cc(/C=N/NC(=O)c3ccccc3O)c(Cl)nc12,inactive: 11.8%
12,COc1ccccc1CNC(=O)C1(C)CCCCN1C (stereo not given),inactive: -0.568%
13,Cc1ccc(NC(=Nc2ccc(Br)cc2)N2CCOCC2)cc1C,inactive: 7.79%
14,COc1ccc(O)c(C=NCC(C)N=Cc2cc(OC)ccc2O)c1 (stereo not given),inactive: -15.2%
15,COc1ccccc1-n1nnnc1SCC(=O)Nc1ccc(C)c(N)c1,inactive: 3.85%
16,O=C(O)Cn1c2ccccc2c2ccccc21,inactive: 11.2%
17,CC(=O)NC(c1ccccc1)c1nc(-c2csc3ccccc23)cs1 (stereo not given),inactive: 16.1%
18,Nc1ccc(S(=O)(=O)NC2(C(F)(F)F)NC(=O)N(c3ccc(F)cc3)C2=O)cc1 (stereo not given),inactive: 4.87%
19,O=C(CCc1nnc(-c2ccccc2)o1)c1ccc(Cl)cc1,inactive: -15.8%
20,CC1(C(=O)NS(=O)(=O)c2ccc(Cl)cc2)CCN1C(=O)Cc1ccc(Cl)cc1Cl (stereo not given),inactive: 5.22%
21,Cc1cc(C)c(S(=O)(=O)N(C)CC(=O)NCCN2CCOCC2)c(C)c1,inactive: -13.6%
22,COc1cccc(NC(=O)c2ccc(NS(=O)(=O)c3cccs3)cc2)c1,inactive: 10.9%
23,Cc1cc(NS(=O)(=O)c2ccc(NC(=O)CCCC(=O)O)cc2)nc(C)n1,inactive: 13.3%
24,Cc1ccc(NC(=O)Cc2ccsc2)cc1S(=O)(=O)N1CCOCC1,inactive: 1.5%
